42 sequences from publication PMC7819943, “Rice protein-binding microarrays: a tool to detect cis-acting elements near promoter regions in rice” can be followed below.

The list shows a part of the results.

The assay concerns the target T1, OsWOX13 (Oryza sativa, UniProt Q5QMM3 1-267).
T1 sequence: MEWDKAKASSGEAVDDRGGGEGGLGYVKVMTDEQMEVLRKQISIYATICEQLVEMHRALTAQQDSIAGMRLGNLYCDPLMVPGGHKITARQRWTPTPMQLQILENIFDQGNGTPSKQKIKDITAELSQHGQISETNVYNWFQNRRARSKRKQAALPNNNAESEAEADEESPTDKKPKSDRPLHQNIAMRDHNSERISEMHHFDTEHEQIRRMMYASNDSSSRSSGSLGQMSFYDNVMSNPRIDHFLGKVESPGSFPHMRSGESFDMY
The assay can be described thus: protein-binding microarray (RPBM); PBS, 2% BSA, 51.3 ng/ul salmon testes DNA, 50 uM zinc acetate, 200 nM TF, 25 C, 1 h; high values mean tight binding. The note with it: protein: recombinant; tags: N-terminal polyhistidine and DsRed monomer fusion (pET32a); label: CyDye5-dUTP incorporated in the synthesized complementary strand; 3' TTTTT single-stranded linker to array surface; dsDNA, one strand shown. In short, it runs like this: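 Per-feature fluorescence intensity (arbitrary units), read on an Axon 4000B scanner, is the binding signal. Transcription factors carrying an N-terminal polyhistidine tag and DsRed fusion were expressed in E. coli BL21-CodonPlus and purified on Ni–NTA. A custom Agilent array, made double-stranded by primer extension with Cy5-dUTP and blocked with 2% BSA, was incubated with 200 nM protein in PBS, 2% BSA, salmon testes DNA and 50 µM zinc acetate at 25 °C for 1 h and then washed.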
For the sequence “ATGAAACACGCTATTAAATAATTAGACTGTATACATCCTTCGGAGTCACCTAGTGCAG”, the binding signal was 3470 fluorescence intensity (a.u.).

For the sequence “TGCTAATTATTGGCATCTCTTGTTTCTTCTCCTCCTACTACGGAGTCACCTAGTGCAG”, the binding signal was 43300 fluorescence intensity (a.u.). In the case of “TTCTTGAAGAGCAATTTCCATGATTGGAAGGTAGGTTGTACGGAGTCACCTAGTGCAG”, the binding signal is 6100 fluorescence intensity (a.u.). Next, “TGTTTCATTGAAATAATTGCCCTTAATAGTTCCTTCTGGTCGGAGTCACCTAGTGCAG”: 5310 fluorescence intensity (a.u.). Next, “AGTAATAATTACTGTTCATTAGTTATGACTCTCTCACGGGCGGAGTCACCTAGTGCAG”: 26400 fluorescence intensity (a.u.); “AATCTTGATAGATGGTAGTATCATTTGACTGAAGTACCTCCGGAGTCACCTAGTGCAG”: 13400 fluorescence intensity (a.u.); “GTGGCCTGATTACACGATTTGCAAGTTAATGGACCTGGATCGGAGTCACCTAGTGCAG”: 11500 fluorescence intensity (a.u.). With “GCCACTGAATGTTCAGAGATGATTTGCAAATTGCAACCGCCGGAGTCACCTAGTGCAG”, the binding signal is 10900 fluorescence intensity (a.u.). Next, “TTGATTACTGAAAATGGATAGATGTAGGAGGAGAAAAGCACGGAGTCACCTAGTGCAG”: 11500 fluorescence intensity (a.u.); “AATAATCACAAATCTAGCCACGACAGTGACTTTGCACTTCCGGAGTCACCTAGTGCAG”: 5160 fluorescence intensity (a.u.). In the case of “GGTGACTGACACGTTGGGTCGCTTCATTCCATAGTTAGGCCGGAGTCACCTAGTGCAG” it was 14800 fluorescence intensity (a.u.); in that of “AATAACATCATGAGTTGATTGAATCTCCTGAAAATAAAGACGGAGTCACCTAGTGCAG”, 41300 fluorescence intensity (a.u.); in that of “ATAAATAATTGTAGTATTAGCAAGTTGTAGTAGACGCAGACGGAGTCACCTAGTGCAG”, 8520 fluorescence intensity (a.u.).

“TTTACACACACATTAATTTACCGCTGTACTATACAAAGGACGGAGTCACCTAGTGCAG”: the binding signal was 3510 fluorescence intensity (a.u.). With “GTCCACCCGTTTATTGCATGTCAATTAGATGATTACGAAACGGAGTCACCTAGTGCAG”, the binding signal is 15100 fluorescence intensity (a.u.). On to “AAAATTGGAACAAAATTAGATGTGATACCTAACCCTTCAACGGAGTCACCTAGTGCAG”, for which the binding signal is 7810 fluorescence intensity (a.u.). In the case of “TTAAATTCAATTCAAAATGTCAACAGGCAGCGGGAACTGGCGGAGTCACCTAGTGCAG” it was 3730 fluorescence intensity (a.u.); in that of “CACTAATGTTGCAACAAACTGATAGTTTGTCACTATAGTTCGGAGTCACCTAGTGCAG”, 5340 fluorescence intensity (a.u.); in that of “CCAGTGATCAATTTAGCTCCATTTCACTAGTGCAATCTGTCGGAGTCACCTAGTGCAG”, 9160 fluorescence intensity (a.u.). Next, “TTGTTACTTTAATTTGTACATCATCATGCGGGTCCGTATACGGAGTCACCTAGTGCAG”: 8240 fluorescence intensity (a.u.). Next, “AGTTAATACTCAATTAATCATGCGCTAATGGCTCACCTCGCGGAGTCACCTAGTGCAG”: 20400 fluorescence intensity (a.u.); “AATTCTTAATTTCATCTATTACCTGGTACGCATGAATCCTCGGAGTCACCTAGTGCAG”: 3550 fluorescence intensity (a.u.). With “AACACCAGAGAACCCGTTGATTGGCCTATATCAGGAAGGGCGGAGTCACCTAGTGCAG”, the binding signal is 11200 fluorescence intensity (a.u.). As for “GATGATGATGGATGCGATTGACTGATGAGACGTCTGCTAACGGAGTCACCTAGTGCAG”, the binding signal was 50300 fluorescence intensity (a.u.). In the case of “GAACAATCAGTAAATTGCATTTCACTTGTTGGGCTCCTAGCGGAGTCACCTAGTGCAG” it was 10800 fluorescence intensity (a.u.). Next, “TGCCAACATAAACTCAATCAAACATGAAAATTTCAAATCCCGGAGTCACCTAGTGCAG”: 3760 fluorescence intensity (a.u.); “CCATCGATTTGATTTTATATGATGCAACTTGGTGTTATCCCGGAGTCACCTAGTGCAG”: 3370 fluorescence intensity (a.u.).

For the sequence “ACAAATTGAGTGTTATAGTGAGATGGCATCGGAGATGAGCCGGAGTCACCTAGTGCAG”, the binding signal was 32400 fluorescence intensity (a.u.).

“TGCCCGATTGAGATATTTTCCCACATCACTGACCTTTGGTCGGAGTCACCTAGTGCAG”: the binding signal is 6020 fluorescence intensity (a.u.). On to “TCTTTAACCGTTCAATTATTTGCTCGAGGTTACAGAGAATCGGAGTCACCTAGTGCAG”, for which the binding signal was 6830 fluorescence intensity (a.u.). Next, “AACTGTTTTGATTTATTAGGGAATGTTGTCAACCAATGAACGGAGTCACCTAGTGCAG”: 6480 fluorescence intensity (a.u.); “TAGGTGACAGTTTATTTAATGCTATTGACACTATTCTAGCCGGAGTCACCTAGTGCAG”: 8640 fluorescence intensity (a.u.); “GGTTGTGACATGAATTGATTTGATGATCACAAGTCCTATCCGGAGTCACCTAGTGCAG”: 29500 fluorescence intensity (a.u.).

Turning to “ATCATGGGATGATTGATTAGGGATTCGAAAGAATACAATACGGAGTCACCTAGTGCAG”, the binding signal is 46400 fluorescence intensity (a.u.). Next, “AGATAAATTGCTTTTGCTAATTCAGTTCGCTTATGGAAAGCGGAGTCACCTAGTGCAG”: 11900 fluorescence intensity (a.u.). As for “AGTAATTGATTTATTTTGTAAAACGTGCGCGACCCATGTTCGGAGTCACCTAGTGCAG”, the binding signal was 48200 fluorescence intensity (a.u.). In the case of “GCTTACACCTAATTAACTAACAAGCACCTATATATACACCCGGAGTCACCTAGTGCAG” it was 9070 fluorescence intensity (a.u.); in that of “GTTTGATTTGGGAATATGCATCCCACTCGATTTGGGAGAACGGAGTCACCTAGTGCAG”, 17600 fluorescence intensity (a.u.).

Take “TATGCAATATATATAATTAATATATGTTGATACATGTGCACGGAGTCACCTAGTGCAG”: the binding signal was 4070 fluorescence intensity (a.u.).

For “CCAAATCAAATTGCCACGTCAATGCCACATCGATGCCACACGGAGTCACCTAGTGCAG”, the binding signal was 5770 fluorescence intensity (a.u.). In the case of “AATAATTAGCCATCGTAAAGCAGTATCCATGCTAAGTCTACGGAGTCACCTAGTGCAG” it was 14000 fluorescence intensity (a.u.); in that of “TAGGATGATTGTGAAGATGATGAAGCCGGTGGTGGCGCTGCGGAGTCACCTAGTGCAG”, 23300 fluorescence intensity (a.u.).
